The other results are listed elsewhere or left out.
B1: chr7:151048522:151048523:+_ENSG00000013374_ENST00000566856|hu_mus|hu_hu_hu_mus_True|18_88 (ssRNA)
RNA: GGGAGUUCUACAGUCCGACGAUCCUGUUUCUUAUUUAUUACGAUCUUGAUAUAAUUUUCUUGAAAUCCGAAAGUUUCAGCUAUUUGACACCUCAGGUCUCUACCAGUGACAUGCAAUCGGGUCUCCAACAAGCUUUUCUUAUCCAACAGAGGAUUGAGCAUCA
B2: chr12:111931289:111931290:-_ENSMUSG00000021270_ENSMUST00000094361|mus_mus|FALSE|FALSE (ssRNA)
RNA: GGGAGUUCUACAGUCCGACGAUCGAUAAAAUAGAUGUGCUUCUGGUUUUCCUUCAUUCUGGUACAGUAGUCCUUCAGAGAAACCAUCUCGUCCCCAGAAGCAGAUGUGUAGUACCGCAACAGCUCUGAAAGCUUCUUCCGAUUCAACAGAGGAUUGAGCAUCA
B3: chr11:29606707:29606708:+_ENSMUSG00000020458_ENSMUST00000102843|mus_mus|FALSE|FALSE (ssRNA)
RNA: GGGAGUUCUACAGUCCGACGAUCCAUGGCUGACUCUCCUUUUGGGGAGCCAUUGAAAGAUGAUCCCAUUUCUGAGUAUUCUAAUACUGAAAACUCUGCUGACUCUCUAUUUACAAAUGGAUUUGUUGCCCUCUCUGGCAAUUCCAACAGAGGAUUGAGCAUCA
B4: chr17:48526647:48526648:-_ENSMUSG00000023994_ENSMUST00000046719|mus_mus|FALSE|FALSE (ssRNA)
RNA: GGGAGUUCUACAGUCCGACGAUCCCAAGUGAGCCCCUCUGGCCUCUGUGCCCACGCCGGCAGGGCUGGGAGCCGACUGCAAUGCAGCCAGAGUGGAAACCCAAGCAUCUGCAUCAAAGGAAAGAAAACUCAAACUUGCCUACGCAACAGAGGAUUGAGCAUCA
B5: chr1:39494447:39494448:+_ENSG00000168653_ENST00000372967|hu_mus|hu_hu_hu_mus_False|1_68 (ssRNA)
RNA: GGGAGUUCUACAGUCCGACGAUCGCACCGAGCGGCGUUCUUAUAGGGCUGUUCUGCGCUUAGGAACGUCAACCAUCGGUCCAGGCUGAUGCCCAGCUUUUUCUGUAUGUCAAGGAAAGGCAUGGCUCUGCAGUGCCCCCUUGACAACAGAGGAUUGAGCAUCA
B6: chr9:51871721:51871722:+_ENSMUSG00000032050_ENSMUST00000163153|mus_mus|FALSE|FALSE (ssRNA)
RNA: GGGAGUUCUACAGUCCGACGAUCUGUUUUUACAACCUGGUCAAAAAGUUGUUUGCCAGUUGUAUUGGGCUGGAUGGCAAAUUCUAGCUCAGCGUCCAUUGUAGUUACUCUUACAUUGAUUGGCUUCGGCAUUUUCUUUUUCUUCAACAGAGGAUUGAGCAUCA
B7: 82431812_82432152_2352_CDS_ENSG00000117114_ENST00000335786|human|control|control (ssRNA)
RNA: GGGAGUUCUACAGUCCGACGAUCUGCAUUUUCUGUACUAAGGAACUGUCCCAGGCUCCGGUAAAUGAUGAACACCAACUUUGCAAGCCCAUUCCUGCUGUUCUGUUUGACGGUAUUUGCGGACAGUUGGAUUGAGCUGCCUGCCAACAGAGGAUUGAGCAUCA
B8: chr7:149068622:149068623:-_ENSMUSG00000025139_ENSMUST00000001950|mus_hu|mus_mus_mus_hu_False|28_38 (ssRNA)
RNA: GGGAGUUCUACAGUCCGACGAUCGUGAGGCCUCUGAGUGUGGCUUGUGGUCUGUCCUGGGUUAGAGUUGUUAAUAUCACGGAACAUACCAUCUAGAGAGGUUCUGCCUGCCUGACUACCUUCAUUCCCAAUGGAGAAGAAAUCCAACAGAGGAUUGAGCAUCA
B9: chr2:217001844:217001845:+_ENSG00000079246_ENST00000392132|hu_hu|hu_hu_hu_mus_False|58_68 (ssRNA)
RNA: GGGAGUUCUACAGUCCGACGAUCACCAACUUGAGGAUUAGAUCUUUUGUCAUAAGCAUAUCGGACGAUGGCCACCAUGUCUAAGUCAUCCAAAGCAUGAACGAGAGAGGAAAGGGCAACAGCUGCCGCCUCAUCAUCCUUUGCCAACAGAGGAUUGAGCAUCA
B10: chr3:169712149:169712150:+_ENSG00000008952_ENST00000337002|hu_hu|motif|central (ssRNA)
RNA: GGGAGUUCUACAGUCCGACGAUCUUAAUUCAAACACUUAGAUGAGAAACAGCCUAAAGCAAAGACUGACAUACACGGCCGGUUUCAACCACAAAGCAAGAUGCUCUCACUGUGACUGAAGAAAAAUCAUUUAAUAUUCAUUAUCAACAGAGGAUUGAGCAUCA
B11: chr2:120799606:120799607:+_ENSG00000115109_ENST00000263713|hu_mus|FALSE|FALSE (ssRNA)
RNA: GGGAGUUCUACAGUCCGACGAUCAUACAUGAUUUGGUCAAACAGCUCCUGUCCUUUGGCUUUUUUCGGCAAGUCCACACUGACAUCUGUACCGUCCAGAAGGGACACCCUGCAUGUGAUGAUGGACUUGGCAUCCCCAGCGGCCAACAGAGGAUUGAGCAUCA
B12: chr4:132324321:132324322:+_ENSMUSG00000028884_ENSMUST00000102561|mus_mus|FALSE|FALSE (ssRNA)
RNA: GGGAGUUCUACAGUCCGACGAUCCACAUCCUGGUCGCAGUUCUCCGGAGAGAGCGGCCCAAGACGCUCGGACACGAAAACUAAGAACACUUGGGAACUCUGUGCCGCUCUGGCGUGGCAGCCUUCUGGCUACUUUGCACUGGCCAACAGAGGAUUGAGCAUCA
B13: 79327576_79327696_2732_ncRNA_ENSMUSG00000035835_ENSMUST00000166057|mouse|control|control (ssRNA)
RNA: GGGAGUUCUACAGUCCGACGAUCAUCCCCAUCACAGUUUUGCCAGGCUUAGUCCUGGUACCUCCUGGCCUGCAUCCUCCUAUAAUAACUUUCUGCCUCAGCCUCCACUUCUCUCUCUGCCAGCCCGCCCACCUGGCGCCUUAGCAACAGAGGAUUGAGCAUCA
B14: chr8:95530139:95530140:-_ENSG00000164944_ENST00000437199|hu_hu|FALSE|FALSE (ssRNA)
RNA: GGGAGUUCUACAGUCCGACGAUCAACAUCACUGGAAGACUGAACCACCACCAAAAUAAGUAUGCAUGCGUAAUUAUAAGCUACUGACUUCUUAGAUUUGGAAUCACCCAAGGCUUCUUUGGAAUAGUACUCCAUUAGAGUAAUCAACAGAGGAUUGAGCAUCA

molecular target: T1, UNK ZnF1-3 (human, UniProt Q9C0B0 31-174); assay: nsRBNS (natural sequence RNA bind-n-seq); RBNS binding buffer (assumed for nsRBNS): 25 mM Tris pH 7.5, 150 mM KCl, 3 mM MgCl2, 0.01% Triton X-100, 500 ug/ml BSA, 20 U/ml SUPERase-In, 4 C; UNK is unkempt and MSI1 is Musashi-1; names of the RNAs are library labels; protein concentration not given here; high values mean tight binding
T1 sequence: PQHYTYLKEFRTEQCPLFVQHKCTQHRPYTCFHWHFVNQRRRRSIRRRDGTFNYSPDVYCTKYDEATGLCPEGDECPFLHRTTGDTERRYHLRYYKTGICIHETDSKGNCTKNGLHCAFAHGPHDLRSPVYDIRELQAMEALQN

Row | Binder | binding signal
1 | B1 | 0.861 enrichment R
2 | B2 | 0.528 enrichment R
3 | B3 | 0.848 enrichment R
4 | B4 | 0.974 enrichment R
5 | B5 | 0.521 enrichment R
6 | B6 | 0.374 enrichment R
7 | B7 | 1.02 enrichment R
8 | B8 | 0.763 enrichment R
9 | B9 | 1.81 enrichment R
10 | B10 | 1.4 enrichment R
11 | B11 | 0.835 enrichment R
12 | B12 | 0.674 enrichment R
13 | B13 | 1.33 enrichment R
14 | B14 | 2.06 enrichment R

From PMC12136788
